Data: publication PMC5892938
The other results are listed elsewhere or left out. The exact form of the protein is not confirmed.

Molecular target: GST-SBP-ILF3 (Homo sapiens) (UniProt Q12906)
Assay: targeted RNA Bind-n-Seq
Conditions: RBNS binding buffer: 25 mM Tris pH 7.5, 150 mM KCl, 3 mM MgCl2, 0.1% Tween, 0.5 mg/mL BSA, 1 mM DTT; 27 nM protein, 750 pM RNA pool; temperature not stated; high values mean tight binding; sequences stand for … in GGGUAAAAGCGAGGUGAA…CGGGACAAGUAUUAUGGG

Row | Sequence | binding signal (log2 fold change)
1 | GUGGUGUGUGUUGGUCCCUAACACACGCCG [gtspaired] | -0.367
2 | UUUUUUUUUUGAGACGGCAACUGUCUCCGG [tttttgagapaired] | 0.941
3 | UUUUUUUUUUGAGAACGGGUCGUUCUUCUA [tttttgagapaired] | 0.188
4 | GUGGUUGGUGUUGGCACCUAACACCAGCCG [gtspaired] | -0.725
5 | UUUUUUUUUUGAGACUGGAGCAGUCUCCGG [tttttgagapaired] | 0.631
6 | UUUUUUUUUUGAGAAGGUAUCCUUCUCCUA [tttttgagapaired] | -0.0555
7 | UUUUUUUUUUGAGAGGGCUGCCCUCUCCUA [tttttgagapaired] | 1.05
8 | UUUUUUUUUUGAGAUCGAAACGAUCUCCGG [tttttgagapaired] | 0.266
9 | GUGUGUUGUGUUGGCCUCUAACACAGCGCA [gtspaired] | -0.477
10 | GGUUGUGGUGUUGGCACCUAACACCACAGC [gtspaired] | -0.26
11 | UUUUUUUUUUGAGAUCGAGACGAUCUUCUA [tttttgagapaired] | -0.0314
12 | UUCUCUUCUCCUCCGCCGGAGGGGGAGAGA [ctspaired] | -0.451
13 | GUGUGGUGUGUUGGAAUCUAACACAUCGCA [gtspaired] | -0.615
14 | UUUUUUUUUUGAGAUGGUAGCCAUCUUCUG [tttttgagapaired] | 0.358
15 | UUUUUUUUUUGAGAGGGAUGCCCUCUCCAG [tttttgagapaired] | 0.444
16 | UUUUUUUUUUGAGAGGGAUCCCCUUUCCAG [tttttgagapaired] | 0.196
17 | UUUUUUUUUUGAGAUGGGUCCCAUCUCCUA [tttttgagapaired] | 0.689
18 | UUUUUUUUUUGAGAUGGGGACUAUCUCCUG [tttttgagapaired] | 0.756
19 | UUUUUUUUUUGAGACGGUGACCGUCUUCUA [tttttgagapaired] | 0.455
20 | GGUGUGUGUGUUGGCACCUAACACAUACAC [gtspaired] | -0.582
21 | UUUUUUUUUUGAGAGGGAAGCCCUCUCCGG [tttttgagapaired] | 0.333
22 | GGUUGGUGUGUUGGCUCCUAACACAUCAAC [gtspaired] | -0.651

Row | Sequence | binding signal (log2 fold change)
23 | UUUUUUUUUUGAGACCGGGACGGUCUCCGG [tttttgagapaired] | 0.0777
24 | UUUUUUUUUUGAGACUGGUGCAGUCUCCAG [tttttgagapaired] | 0.298
25 | UUUUUUUUUUGAGACGGAAGCCGUCUUCUG [tttttgagapaired] | 0.584
26 | UUUUUUUUUUGAGACGGGAACUGUCUCCAG [tttttgagapaired] | 0.854
27 | UUUUUUUUUUGAGACCGGGUCGGUUUCCUG [tttttgagapaired] | 0.668
28 | GGUGUGUGUGUUGGUCUCUAACACAUACAC [gtspaired] | -0.864
29 | UUUUUUUUUUGAGAGGGCCUCCCUCUCCAG [tttttgagapaired] | 0.79
30 | GUUGUGUGUGUUGGUCUCUAACACACACAG [gtspaired] | -0.349
31 | GGUUGGUGUGUUGGCAUCUAACACAUCAAC [gtspaired] | -0.269
32 | UUUUUUUUUUGAGAGGGUACCCCUCUCCUG [tttttgagapaired] | 0.388
33 | GUUGUGUGUGUUGGUACCUAACACACGCAA [gtspaired] | -0.0906
34 | UUUUUUUUUUGAGACGGCUGCCGUCUUCUA [tttttgagapaired] | 0.692
35 | UUUUUUUUUUGAGAUGGACUCCAUCUCCGG [tttttgagapaired] | 0.0618
36 | GGUUGGUGUGUUGGUAUCUAACACAUCGAC [gtspaired] | -0.762
37 | UUUUUUUUUUGAGACGGGUACCGUCUCCAG [tttttgagapaired] | 0.469
38 | UUUUUUUUUUGAGAUGGGGUCCAUUUCCUG [tttttgagapaired] | 0.858
39 | UUUUUUUUUUGAGACGGCGGCCGUCUUCUA [tttttgagapaired] | 0.752
40 | UUUUUUUUUUGAGACGGAGACCGUUUCCUG [tttttgagapaired] | 0.838
41 | UUUUUUUUUUGAGAACGAGUCGUUCUCCAG [tttttgagapaired] | 0.116
42 | UUUUUUUUUUGAGAGUGAAGCACUCUUCUA [tttttgagapaired] | -0.32
43 | UUUUUUUUUUGAGACGGUUUCUGUCUCCGG [tttttgagapaired] | 0.44
44 | GUGUGGUGUGUUGGCUUCUAACACAUCGCG [gtspaired] | -0.672

Row | Sequence | binding signal (log2 fold change)
45 | GGUGUGUGUGUUGGAACCUAACACACGCGC [gtspaired] | -0.505
46 | UUUUUUUUUUGAGAUGGUGUCUAUCUUCUA [tttttgagapaired] | 0.109
47 | UUUUUUUUUUGAGAGCGUAUCGCUCUUCUG [tttttgagapaired] | 0.467
48 | GUGUUGUGUGUUGGAUCCUAACACACAGCG [gtspaired] | -0.636
49 | UUUUUUUUUUGAGACCGCUACGGUCUCCUG [tttttgagapaired] | 0.266
50 | UUUUUUUUUUGAGAACGGAUCGUUCUCCUA [tttttgagapaired] | -0.0595
51 | GUGGUUGGUGUUGGCUCCUAACACCAGCCG [gtspaired] | -0.404
52 | GUGGUGUGUGUUGGACCCUAACACACAUCG [gtspaired] | -0.449
53 | GGUGGUUGUGUUGGCACCUAACACAGCCAC [gtspaired] | -0.495
54 | UUUUUUUUUUGAGAUCGGACCGAUCUCCGG [tttttgagapaired] | 0.346
55 | UUUUUUUUUUGAGAACGGACCGUUCUCCAG [tttttgagapaired] | 0.537
56 | UUUUUUUUUUGAGAGGGAGGCCCUCUCCUA [tttttgagapaired] | 0.478
57 | UUUUUUUUUUGAGAUGGUGACCAUCUUCUA [tttttgagapaired] | 0.106
58 | UUUUUUUUUUGAGACGGAGGCUGUCUCCUA [tttttgagapaired] | 0.953
59 | GUGGUGUGUGUUGGAUUCUAACACACGCUA [gtspaired] | -0.457
60 | UUUUUUUUUUGAGACUGAGUCAGUCUCCGG [tttttgagapaired] | 0.406
61 | GUGUGGUGUGUUGGAGCCUAACACAUCGCA [gtspaired] | -0.793
62 | UUUUUUUUUUGAGACGGCGUCCGUUUCCGG [tttttgagapaired] | 0.861
63 | UUUUUUUUUUGAGAGCGGGGCGUUCUCCGG [tttttgagapaired] | 0.678
64 | GGUUGGUGUGUUGGCACCUAACACAUCAAC [gtspaired] | -0.515
65 | UUUUUUUUUUGAGACCGCUACGGUCUCCUA [tttttgagapaired] | 0.321
